# From US20250129132A1 (University of Washington, published 2025)
# T1: SpyTag-azide peptide ST-N3, H-SEQ ID No. 51 (N3)-NH2 (ε-amino group of the C-terminal lysine functionalised with 4-azidobutanoic acid (N3); C-terminal amide)
# T1 construct: Made by Fmoc solid-phase synthesis; also called synthetic SpyTag peptide
# T1 peptide: AHIVMVDAYKPTKGSGK
# Target: T1, SpyTag-azide peptide ST-N3, H-SEQ ID …
# Assay: pre-reaction of SC-cUnaG (2 µM) with ST-N3 (20 µM), 48 h at 25 °C; read out by loss of UnaG reconstitution
# Source text: FIG. 17A-17B: Assessing background fluorescence in the UnaG (SEQ ID No. 41) LASL system. […] This could be attributed to one of several potential mechanisms: FIG. 17A: (1) non-covalent association of pSC (SEQ ID No. 26) and ST could locally concentrate UnaG (SEQ ID No. 41) fragments to promote re-assembly, (2) nUnaG and cUnaG fragments could weakly associate non-covalently in a manner stabilized with bilirubin and independent of the fused pSC (SEQ ID No. 26)/ST (SEQ ID No. 7, SEQ ID No. 8), or (3) some combination thereof. To assess, we pre-reacted pSC-cUnaG (SEQ ID No. 39) and SC-cUnaG (SEQ ID No. 37) with a synthetic SpyTag peptide (SEQ ID No. 7. SEQ ID No. 8, ST-N₃) (Methods S15-16). […]
# pSC-cUnaG (SEQ ID No. 39) and SC-cUnaG (SEQ ID No. 37, 2 μM in Tris Buffer) were incubated with or without ST-N₃ (SEQ ID No. 7, SEQ ID No. 8, 20 μM) for 48 h at 25° C. Fluorescence reconstitution was determined by combining equimolar amounts of ST-N₃—(SEQ ID No. 7. SEQ ID No. 8) treated pSC-cUnaG (SEQ ID No. 39)/SC-cUnaG (SEQ ID No. 37) with nUnaG-ST (SEQ ID No. 31, all proteins at 1 μM) and excess bilirubin (10 μM). Reconstituted UnaG (SEQ ID No. 41) fluorescence was measured 24 h after nUnaG-ST (SEQ ID No. 31) addition using a fluorescent plate reader in 96-well, black opaque plates (λexcitation=491 nm, λₑₘᵢₛₛᵢₒₙ=528 nm).
binder,measurement,value
"SC-cUnaG (SC-SEQ ID No. 55-cUnaG-6xHis) (designed binder, also called wild-type SC-cUnaG) MVDTLSGLSSEQGQSGDMTIEEDS[no letters for about 80 residues]GKATKGDAHIGGSGGGSGGVKSVVNLVGEKLVYVQKWDGKETTYVREIKDGKLVVTLTMGDVVAVRSYRRATEKLGTLEHHHHHH",binding result,binds
